# Measured values: PMC10009787 (ACS Medicinal Chemistry Letters, 2023)
# Values joined by “and” are separate entries in the source; they are usually repeats but may differ in a detail not shown here. Equal entries are not always repeated.
# Columns and labels:
# FGFR3 = FGFR3 (Homo sapiens, UniProt P22607); assay: SelectScreen kinase profiling; type: biochemical; conditions: average of duplicate
# LCK = LCK (Homo sapiens, UniProt P06239); assay: SelectScreen kinase profiling; type: biochemical; conditions: average of duplicate
# ABL2 (Arg) = ABL2 (Arg) (Homo sapiens, UniProt P42684); assay: SelectScreen kinase profiling; type: biochemical; conditions: average of duplicate
# BLK = BLK (Homo sapiens, UniProt P51451); assay: SelectScreen kinase profiling / Z′-Lyte kinase assay
# [1] = test system: ibrutinib’s top 50 targets; assay: Single-point kinase profiling, count of kinases inhibited; type: biochemical; conditions: 1 μM, of 50 kinases
# LYN B = LYN B (Homo sapiens, UniProt P07948); assay: SelectScreen kinase profiling; type: biochemical; conditions: average of duplicate
# FGR = FGR (Homo sapiens, UniProt P09769); assay: SelectScreen kinase profiling; type: biochemical; conditions: average of duplicate
# SRC = SRC (Homo sapiens, UniProt P12931); assay: SelectScreen kinase profiling / Z′-Lyte kinase assay
# ABL1 = ABL1 (Homo sapiens, UniProt P00519); assay: SelectScreen kinase profiling; type: biochemical; conditions: average of duplicate
# BTK [2] = target: T1, BTK (Homo sapiens, UniProt Q06187); assay: AssayQuant kinact/Ki profiling, PhosphoSens CSox-based kinetic assay; type: biochemical; design: purchased ThermoFisher / Life Technologies SelectScreen PV3363; conditions: 0.6 nM enzyme, 1000 µM ATP, one step fit
# KDR (VEGFR2) = KDR (VEGFR2) (Homo sapiens, UniProt P35968); assay: SelectScreen kinase profiling; type: biochemical; conditions: average of duplicate
# YES1 = YES1 (Homo sapiens, UniProt P07947); assay: SelectScreen kinase profiling; type: biochemical; conditions: average of duplicate
# FGFR2 = FGFR2 (Homo sapiens, UniProt P21802); assay: SelectScreen kinase profiling; type: biochemical; conditions: average of duplicate
# BTK [3] = target: T1, BTK; assay: SelectScreen kinase profiling / Z′-Lyte kinase assay; conditions: BTK IC50, Z′-Lyte, [ATP] Km app, 1 h incubation, duplicate
# RET = RET (Homo sapiens, UniProt P07949); assay: SelectScreen kinase profiling; type: biochemical; conditions: average of duplicate
# ERBB4 (HER4) = ERBB4 (HER4) (Homo sapiens, UniProt Q15303); assay: SelectScreen kinase profiling; type: biochemical; conditions: average of duplicate
# EGFR (ErbB1) d746-750 = EGFR (ErbB1) d746-750 (Homo sapiens, UniProt P00533, DEL746-750); assay: SelectScreen kinase profiling; type: biochemical; conditions: average of duplicate
# MAP2K2 (MEK2) = MAP2K2 (MEK2) (Homo sapiens, UniProt P36507); assay: SelectScreen kinase profiling; type: biochemical; conditions: average of duplicate
# EGFR (ErbB1) T790M = EGFR (ErbB1) T790M (Homo sapiens, UniProt P00533, T790M); assay: SelectScreen kinase profiling; type: biochemical; conditions: average of duplicate
# FGFR1 = FGFR1 (Homo sapiens, UniProt P11362); assay: SelectScreen kinase profiling; type: biochemical; conditions: average of duplicate
# FLT4 (VEGFR3) = FLT4 (VEGFR3) (Homo sapiens, UniProt P35916); assay: SelectScreen kinase profiling; type: biochemical; conditions: average of duplicate
# [4] = BTK selectivity from IC50 values
# T1 sequence (Q06187 whole entry): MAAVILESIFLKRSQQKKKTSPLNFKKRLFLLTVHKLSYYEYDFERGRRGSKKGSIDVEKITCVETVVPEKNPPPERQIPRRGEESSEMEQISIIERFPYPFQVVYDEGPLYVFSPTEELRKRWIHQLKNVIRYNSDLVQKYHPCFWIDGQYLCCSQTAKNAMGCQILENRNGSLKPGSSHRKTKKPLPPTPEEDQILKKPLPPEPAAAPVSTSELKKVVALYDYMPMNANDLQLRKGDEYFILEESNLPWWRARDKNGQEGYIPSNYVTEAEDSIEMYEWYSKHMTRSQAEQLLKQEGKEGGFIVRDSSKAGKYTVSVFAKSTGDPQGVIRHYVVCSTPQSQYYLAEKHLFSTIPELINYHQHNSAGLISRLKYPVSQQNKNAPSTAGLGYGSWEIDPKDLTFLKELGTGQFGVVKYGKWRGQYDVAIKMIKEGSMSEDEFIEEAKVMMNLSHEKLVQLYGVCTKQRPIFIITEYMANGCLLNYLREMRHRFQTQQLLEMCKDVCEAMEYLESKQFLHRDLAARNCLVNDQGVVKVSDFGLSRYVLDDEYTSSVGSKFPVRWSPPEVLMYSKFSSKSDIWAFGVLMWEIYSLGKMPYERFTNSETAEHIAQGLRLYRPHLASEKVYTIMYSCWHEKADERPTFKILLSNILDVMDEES
# Sequence of UniProt P51451 (P51451 whole entry): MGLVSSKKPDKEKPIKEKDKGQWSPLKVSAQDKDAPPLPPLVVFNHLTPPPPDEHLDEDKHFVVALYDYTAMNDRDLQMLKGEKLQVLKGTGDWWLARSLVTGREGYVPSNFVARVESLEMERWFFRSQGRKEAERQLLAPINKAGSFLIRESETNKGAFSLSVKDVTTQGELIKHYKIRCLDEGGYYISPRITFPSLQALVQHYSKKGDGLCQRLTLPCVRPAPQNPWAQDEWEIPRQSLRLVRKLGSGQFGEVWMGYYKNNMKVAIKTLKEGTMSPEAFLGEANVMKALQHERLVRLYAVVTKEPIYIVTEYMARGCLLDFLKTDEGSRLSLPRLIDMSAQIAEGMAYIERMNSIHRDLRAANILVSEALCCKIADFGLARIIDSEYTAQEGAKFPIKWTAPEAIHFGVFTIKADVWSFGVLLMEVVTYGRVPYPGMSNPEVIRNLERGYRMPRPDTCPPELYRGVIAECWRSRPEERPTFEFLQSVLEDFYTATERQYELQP
# Sequence of UniProt P12931 (P12931 whole entry): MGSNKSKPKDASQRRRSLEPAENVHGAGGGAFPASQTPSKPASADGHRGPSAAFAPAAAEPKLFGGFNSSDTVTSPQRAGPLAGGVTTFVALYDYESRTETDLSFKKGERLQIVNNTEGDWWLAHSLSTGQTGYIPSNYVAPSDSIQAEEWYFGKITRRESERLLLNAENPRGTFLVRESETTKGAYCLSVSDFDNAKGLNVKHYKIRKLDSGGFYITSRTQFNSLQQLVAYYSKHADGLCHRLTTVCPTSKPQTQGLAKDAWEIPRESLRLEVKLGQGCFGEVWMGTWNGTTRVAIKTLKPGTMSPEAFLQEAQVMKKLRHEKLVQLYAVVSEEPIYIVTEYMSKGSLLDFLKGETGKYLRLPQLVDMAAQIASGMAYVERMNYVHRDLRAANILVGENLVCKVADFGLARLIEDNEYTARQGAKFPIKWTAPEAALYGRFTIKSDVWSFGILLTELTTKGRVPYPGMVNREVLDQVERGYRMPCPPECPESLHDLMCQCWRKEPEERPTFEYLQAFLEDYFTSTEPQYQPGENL
# Sequence of UniProt P09769 (P09769 whole entry): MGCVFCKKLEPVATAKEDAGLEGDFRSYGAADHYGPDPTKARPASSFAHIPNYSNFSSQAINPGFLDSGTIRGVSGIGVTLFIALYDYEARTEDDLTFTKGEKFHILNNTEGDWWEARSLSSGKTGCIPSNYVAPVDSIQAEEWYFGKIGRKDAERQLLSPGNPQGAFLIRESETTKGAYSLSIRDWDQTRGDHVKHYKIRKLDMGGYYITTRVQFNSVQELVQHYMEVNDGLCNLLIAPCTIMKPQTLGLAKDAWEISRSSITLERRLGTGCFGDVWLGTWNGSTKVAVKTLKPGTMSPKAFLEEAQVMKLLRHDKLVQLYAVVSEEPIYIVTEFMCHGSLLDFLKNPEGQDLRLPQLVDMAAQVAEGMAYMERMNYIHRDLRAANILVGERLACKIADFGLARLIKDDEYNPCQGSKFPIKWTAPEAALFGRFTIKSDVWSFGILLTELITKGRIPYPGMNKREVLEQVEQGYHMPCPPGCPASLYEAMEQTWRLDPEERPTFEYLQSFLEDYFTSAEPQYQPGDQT
# Sequence of UniProt P42684 (P42684 whole entry): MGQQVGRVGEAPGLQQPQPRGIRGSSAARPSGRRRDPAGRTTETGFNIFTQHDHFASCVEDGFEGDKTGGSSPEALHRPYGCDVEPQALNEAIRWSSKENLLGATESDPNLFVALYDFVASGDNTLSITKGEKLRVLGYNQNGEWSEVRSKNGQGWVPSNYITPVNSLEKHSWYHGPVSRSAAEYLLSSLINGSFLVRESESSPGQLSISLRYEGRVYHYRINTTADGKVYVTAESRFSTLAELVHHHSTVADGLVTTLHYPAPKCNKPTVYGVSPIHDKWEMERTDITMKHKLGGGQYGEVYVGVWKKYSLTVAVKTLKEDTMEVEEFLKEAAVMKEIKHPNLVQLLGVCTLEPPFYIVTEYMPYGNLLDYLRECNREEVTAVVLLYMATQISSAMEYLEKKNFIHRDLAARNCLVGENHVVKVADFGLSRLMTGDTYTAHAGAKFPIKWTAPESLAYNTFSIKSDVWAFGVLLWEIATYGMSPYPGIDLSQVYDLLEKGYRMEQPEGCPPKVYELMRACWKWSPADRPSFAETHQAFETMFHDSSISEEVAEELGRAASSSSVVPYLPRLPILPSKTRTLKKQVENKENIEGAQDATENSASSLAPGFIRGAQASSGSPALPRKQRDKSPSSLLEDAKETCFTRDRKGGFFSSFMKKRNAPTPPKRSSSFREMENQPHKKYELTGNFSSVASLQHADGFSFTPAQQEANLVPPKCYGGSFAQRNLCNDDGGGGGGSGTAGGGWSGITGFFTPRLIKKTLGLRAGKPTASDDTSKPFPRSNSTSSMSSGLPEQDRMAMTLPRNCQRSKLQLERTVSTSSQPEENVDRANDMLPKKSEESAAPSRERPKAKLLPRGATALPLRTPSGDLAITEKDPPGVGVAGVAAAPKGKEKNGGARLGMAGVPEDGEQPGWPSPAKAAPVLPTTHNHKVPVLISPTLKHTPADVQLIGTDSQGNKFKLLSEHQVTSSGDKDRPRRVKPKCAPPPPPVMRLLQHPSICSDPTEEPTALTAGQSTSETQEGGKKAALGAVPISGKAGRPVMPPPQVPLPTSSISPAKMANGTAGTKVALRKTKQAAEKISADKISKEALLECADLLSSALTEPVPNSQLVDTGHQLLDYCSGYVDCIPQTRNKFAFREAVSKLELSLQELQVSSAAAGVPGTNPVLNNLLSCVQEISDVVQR
# Sequence of UniProt P07947 (P07947 whole entry): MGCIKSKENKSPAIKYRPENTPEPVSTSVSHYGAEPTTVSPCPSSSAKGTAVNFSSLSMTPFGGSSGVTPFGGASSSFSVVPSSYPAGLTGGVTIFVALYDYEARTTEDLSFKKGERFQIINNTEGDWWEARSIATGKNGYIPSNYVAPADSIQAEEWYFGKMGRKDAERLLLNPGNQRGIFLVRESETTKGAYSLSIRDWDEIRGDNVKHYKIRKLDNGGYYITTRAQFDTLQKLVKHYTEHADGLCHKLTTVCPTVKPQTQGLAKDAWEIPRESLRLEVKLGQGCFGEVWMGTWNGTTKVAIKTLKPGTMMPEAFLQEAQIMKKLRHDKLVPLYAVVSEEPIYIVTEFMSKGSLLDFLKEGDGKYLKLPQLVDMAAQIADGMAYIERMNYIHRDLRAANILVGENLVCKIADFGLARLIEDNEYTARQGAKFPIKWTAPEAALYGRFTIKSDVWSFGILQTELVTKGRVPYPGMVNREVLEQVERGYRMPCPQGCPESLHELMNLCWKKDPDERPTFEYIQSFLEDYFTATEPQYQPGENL
# Sequence of UniProt P06239 (P06239 whole entry): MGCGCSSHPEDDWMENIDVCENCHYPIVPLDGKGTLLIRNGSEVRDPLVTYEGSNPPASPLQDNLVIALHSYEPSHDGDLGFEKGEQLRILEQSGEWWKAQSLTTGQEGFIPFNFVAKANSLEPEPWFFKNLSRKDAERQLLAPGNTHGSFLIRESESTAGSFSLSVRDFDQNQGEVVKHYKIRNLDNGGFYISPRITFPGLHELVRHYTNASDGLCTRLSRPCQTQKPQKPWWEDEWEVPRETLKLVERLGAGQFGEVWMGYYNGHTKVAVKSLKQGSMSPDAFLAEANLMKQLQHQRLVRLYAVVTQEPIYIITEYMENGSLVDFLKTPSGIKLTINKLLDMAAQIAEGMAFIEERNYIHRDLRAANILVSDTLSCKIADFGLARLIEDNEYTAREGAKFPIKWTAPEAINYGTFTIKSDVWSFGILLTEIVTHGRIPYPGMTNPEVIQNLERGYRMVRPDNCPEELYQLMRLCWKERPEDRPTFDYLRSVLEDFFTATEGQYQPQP
# Sequence of UniProt P36507 (P36507 whole entry): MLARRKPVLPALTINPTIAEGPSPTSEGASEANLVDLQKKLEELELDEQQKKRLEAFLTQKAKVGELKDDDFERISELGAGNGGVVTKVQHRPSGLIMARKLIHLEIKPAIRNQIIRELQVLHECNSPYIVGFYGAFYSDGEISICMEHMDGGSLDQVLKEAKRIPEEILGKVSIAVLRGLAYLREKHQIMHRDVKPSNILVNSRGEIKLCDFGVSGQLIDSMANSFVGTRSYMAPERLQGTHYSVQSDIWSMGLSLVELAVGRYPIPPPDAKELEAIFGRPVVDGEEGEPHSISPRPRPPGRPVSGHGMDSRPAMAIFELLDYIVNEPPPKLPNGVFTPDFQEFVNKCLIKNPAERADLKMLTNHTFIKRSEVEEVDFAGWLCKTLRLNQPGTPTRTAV
smiles,measurement,setting,value
"C=CC(=O)N1CCC[C@@H](n2nc(-c3ccc(Oc4ccccc4)cc3C)c3c(N)ncnc32)C1 [Compound 2, (R)-1-(3-(4-amino-3-(2-methyl-4-phenoxyphenyl)-1H-pyrazolo[3,4-d]pyrimidin-1-yl)piperidin-1-yl)prop-2-en-1-one]",inhibition at 1 µM,FGFR3,12%
same,inhibition at 1 µM,LCK,100%
same,inhibition at 1 µM,ABL2 (Arg),23%
same,inhibition at 1 µM,BLK,107%
same,IC50,"BLK; BLK IC50, Z′-Lyte, [ATP] Km app, 1 h incubation, duplicate",1.4 nM and 1.36 nM
same,"BLK, BTK/Kinase",BLK; [4],1.4 x
same,number of kinases inhibited to 10% of control,[1],17
same,inhibition at 1 µM,LYN B,92%
same,inhibition at 1 µM,FGR,98%
same,inhibition at 1 µM,SRC,95%
same,"SRC, BTK/Kinase",SRC; [4],37 x
same,inhibition at 1 µM,ABL1,16%
same,kinact/KI,BTK [2],280000 M⁻¹ s⁻¹
same,inhibition at 1 µM,KDR (VEGFR2),23%
same,inhibition at 1 µM,YES1,98%
same,inhibition at 1 µM,FGFR2,54%
same,IC50,BTK [3],0.9 nM and 0.936 nM
same,inhibition at 1 µM,RET,46%
same,inhibition at 1 µM,ERBB4 (HER4),101%
same,inhibition at 1 µM,EGFR (ErbB1) d746-750,94%
same,inhibition at 1 µM,MAP2K2 (MEK2),20%
same,inhibition at 1 µM,EGFR (ErbB1) T790M,68%
same,inhibition at 1 µM,FGFR1,57%
same,inhibition at 1 µM,FLT4 (VEGFR3),21%
